# Measurements: PubChem BioAssay AID1345083 (National Center for Advancing Translational Sciences (NCATS), 2018)
# About 6,200 (6.6%) of roughly 94,000 compounds were called active. Inconclusive means that the source gave no clear call. Such entries were picked first, then a sample of the others. Calls follow the shape of the dose curve; as a rule, active = well fitted inhibition curve with a large enough effect; inconclusive = small, poorly fitted or top-dose-only effect; inactive = flat fitted curve, though single readings scatter. Potencies beside an inconclusive call are fits to weak or partial responses and may not hold up.
# Assay: Cytotoxic Profiling in HEK 293 Cell Line of Diverse Libraries Using Quantitative High-Throughput Screening; also: nearly all actives have a fitted effect of over 60% in size
# Details: HEK 293 viability, ATP luminescence (CellTiter-Glo), 48-72 h; series mostly up to 115 µM
# How it was run: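 ATP-coupled CellTiter-Glo luminescence served as viability read-out, recorded 10 min after reagent addition at room temperature. HEK 293 cells, 250 cells/well, had been incubated with pintool-transferred compound for 48 or 72 hr at 37 degree Celsius.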
# Potency is read from the fitted curve at half-maximal effect; tags tell the direction and shape of the fitted curve.
row,SMILES,Potency
1,CC(=O)N1Cc2ccccc2CC2(CCCN(CCc3ccccc3)C2)C1 (centres undefined),"inconclusive: 56.2 µM [inhibitor, partial curve, poor fit]"
2,COCCc1nncn1C1CCN(S(=O)(=O)c2ccccc2Cl)CC1,inactive
3,COc1cccc(C(=O)NCCC2CCN(C(=O)Nc3cccc(F)c3)CC2)c1,inactive
4,COCCNC(=O)c1ccc(CC2CCNCC2)cc1,inactive
5,COc1ccc(NC(=O)c2cnc3n[nH]c(-c4ccc(OC)cc4C)c3n2)cc1,"inconclusive: 89.1 µM [inhibitor, partial curve, poor fit]"
6,COc1cccc(NC(=O)c2ccc3c(c2)C(O)CCCCCN3C)c1 (centres undefined),"inconclusive: 56.2 µM [inhibitor, partial curve, poor fit]"
7,COC(=O)C1=C(C)N=C2SC=C(CC(=O)N3CCCCC3)N2C1c1ccc(Cl)cc1 (centres undefined),"inconclusive: 10 µM [inhibitor, full curve, poor fit]"
8,Cc1ccc(-c2nc(CN3CCCC3=O)no2)cc1,inactive
9,COc1ccc(CN(C)C2CCc3nn(C)c(=O)n3CC2)cc1Cn1cccn1 (centres undefined),inactive
10,O=C(Nc1ccc([C@H]2OCC(=O)N(Cc3ccc(F)cc3)[C@@H]2CO)cc1)c1cccc(F)c1,"inconclusive: 79.4 µM [inhibitor, partial curve, poor fit]"
11,Cc1noc(C)c1-c1cc2cc(C(C)C)oc2c(N2CCS(=O)(=O)CC2)n1,"inconclusive: 79.4 µM [inhibitor, partial curve]"
12,Cn1cc(C(=O)N2CCC3(CCN(C4CCOCC4)CC3)C(CO)C2)cn1 (centres undefined),"inconclusive: 56.2 µM [inhibitor, partial curve, poor fit]"
13,CN(C)c1cccc(-c2cnc(Nc3ccncc3)c3c2CCO3)c1,active: 56.2 µM
14,COc1nccnc1NC1CCN(C(=O)NCc2ccc(F)cc2)CC1,"inconclusive: 44.7 µM [inhibitor, partial curve, poor fit]"
15,O=C(Nc1cnc(-c2cccc(Cl)c2)nc1)c1ccccc1F,inactive
16,CN1CCN(Cc2nc(C3(O)CCN(CC4CCCCC4)CC3)cs2)CC1,"inconclusive: 79.4 µM [inhibitor, partial curve, poor fit]"
17,CN(C)c1ccc(-c2nnc([C@H]3CCN(Cc4ccccc4)C3)o2)cc1,"inconclusive: 100 µM [inhibitor, partial curve, poor fit]"
18,COc1cccc(-c2ccc(CN3CCCC3C(=O)NCc3ccccc3F)cc2)c1 (centres undefined),"inconclusive: 44.7 µM [inhibitor, partial curve, poor fit]"
19,CCOCc1nc(C2CCCN(C(=O)c3ccc(F)c(F)c3)C2)no1 (centres undefined),inactive
